The supplement of paper PMC3334620
Whole data set: some 33,000 sequences, median “E-score (-0.5 to 0.5)” near -0.056, cut for the highest 2% near 0.38. The list shows a part of the results.

target: Stb4 (UniProt P50104); assay: PBM E-score (8-mer binding enrichment) (E-score (-0.5 to 0.5)); higher = stronger / more preferred TF binding; most listed sequences are background and not binding sites; conditions: protein concentration: 200 nM; construct: GST-DNA-binding domain
Procedure, shortened: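 Universal all-10-mer Agilent arrays, double-stranded by primer extension on fresh or once-stripped slides, were probed with about 100-200 nM GST-tagged yeast transcription factors made by PURExpress. Fluorescent anti-GST detected bound protein, and masliner normalised the scans. E-scores from the Universal PBM Analysis Suite were given to each ungapped eight-base word pooled with its reverse complement.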

| Sequence | PBM E-score |
| --- | --- |
| ATTGTAAA | 0.0174 |
| ACCTATAC | -0.0823 |
| ATGGACTC | -0.0251 |
| AGGGGCTA | -0.212 |
| CGTCACTC | 0.0312 |
| TCACGCAA | -0.0837 |
| CGTGCCAA | -0.123 |
| GAGCTGTA | -0.234 |
| GGCGGCAC | 0.214 |
| CCCTGTTA | 0.126 |
| AGTGGTGG | -0.201 |
| AAATAAAT | 0.0711 |
| CATGTGCG | -0.0228 |
| ACCGTAAC | 0.111 |
| AGACTAAC | -0.113 |
| GGGAGTTA | 0.0482 |
| CGGACCAA | 0.208 |
| CGGGTCTC | 0.283 |
| AACCAGAT | 0.0971 |
| GTTTCTGA | 0.111 |
| TGCTCGAA | -0.178 |
| ATAGAATG | -0.197 |
| CGCGAGCA | -0.193 |
| CCCTAAAC | -0.179 |
| AGTTTTCG | 0.152 |

| Sequence | PBM E-score |
| --- | --- |
| ATACTTAG | -0.0338 |
| GGCCTGCA | -0.183 |
| GGGGCAAC | -0.255 |
| CCCTCATA | -0.293 |
| TACCACCA | 0.0881 |
| ATTTCTGA | -0.319 |
| GCATGGGC | -0.153 |
| CTAAACGC | 0.0223 |
| AAGCCCCC | 0.00982 |
| CCGTTCTC | 0.0162 |
| AGAGGGTA | -0.297 |
| AACTGCTG | -0.148 |
| AAATAGGA | -0.0261 |
| CGCAGCCG | 0.275 |
| CACTGACG | -0.226 |
| GATAATTA | 0.18 |
| CGCTCAAA | -0.159 |
| TAAGCGGA | 0.138 |
| CGTTAGCC | 0.13 |
| ACGCCACT | -0.107 |
| CCCAACCC | 0.0175 |
| CAGAACTA | -0.0215 |
| ATCCAATA | 0.0175 |
| AGCTACCG | 0.132 |
| AGTGTACG | -0.0843 |

| Sequence | PBM E-score |
| --- | --- |
| TATAAACA | -0.128 |
| CGCTGACG | -0.169 |
| TATGTGCA | -0.103 |
| ACTGGCCA | -0.0879 |
| GTCTCCGA | 0.352 |
| AAATTAAA | -0.0365 |
| ACGAAACA | -0.0702 |
| AATCTGCC | 0.0815 |
| GTCTGCCA | -0.126 |
| GTACCCTA | -0.206 |
| AACGTCTT | -0.199 |
| GCATCAGA | -0.218 |
| CCCCGGAG | 0.247 |
| GTCACAAA | 0.0709 |
| AATTCTCT | -0.0977 |
| CAGTTTGA | -0.0855 |
| GCCGCTCC | 0.103 |
| ACACCTGT | -0.163 |
| CGCTGCAA | -0.218 |
| AAGGCGCT | -0.212 |
| AACCGCAT | 0.15 |
| ATCGCGAC | -0.121 |
| AGTTCGCA | -0.158 |
| CCCAACGG | 0.00018 |
| AGAGGACA | -0.265 |

| Sequence | PBM E-score |
| --- | --- |
| ATCTAACC | 0.177 |
| CGAAGGCG | 0.119 |
| GTGTCATA | 0.0481 |
| CGTTTAAC | -0.194 |
| ACTAAACT | -0.227 |
| AATTGGCT | -0.0998 |
| ATGACAAA | -0.201 |
| CGAGCTAG | 0.0925 |
| AAGCCACC | -0.221 |
| CCTGAGAG | -0.247 |
| ACCCGTTC | 0.251 |
| CGCCGGTC | 0.0332 |
| CCGAGCCC | 0.444 |
| ATAGTTAA | -0.106 |
| GTTGAGCA | -0.0611 |
| GAAAGGAC | 0.121 |
| GACAGCTC | -0.137 |
| GATTGTGA | 0.0629 |
| TACTCTCA | -0.314 |
| CGAAGCGC | 0.144 |
| GACAGGCC | -0.121 |
| CGAAAGGC | 0.086 |
| GCGGCAGA | 0.136 |
| AGTTTGCC | 0.0128 |
| AAAATTGA | -0.0524 |

| Sequence | PBM E-score |
| --- | --- |
| CTACTGTA | -0.157 |
| TGGTCTAA | -0.176 |
| CCCTACCA | -0.102 |
| AACTCAAG | -0.133 |
| CGAAAGCG | 0.0228 |
| ACTTGGCG | -0.18 |
| GCGACCCC | -0.0691 |
| AGTTGGTA | -0.223 |
| AAGAATAG | -0.12 |
| AATGGAAC | 0.0496 |
| ACCAGAGC | -0.00449 |
| GGGACATA | 0.131 |
| ATCTCATG | -0.141 |
| CCTTGTCG | -0.17 |
| AGGGCTCC | -0.109 |
| GCAAAGAC | -0.166 |
| AACAGACG | 0.108 |
| AAACTTCG | 0.132 |
| ACATCGGC | 0.303 |
| GCATTCAC | 0.164 |
| ACAATAGT | -0.103 |
| AAGAATAA | -0.236 |
| AAGGAGCT | -0.192 |
| CTACATGC | -0.11 |
| GTCGTATA | -0.0318 |

| Sequence | PBM E-score |
| --- | --- |
| CCAGACGA | -0.102 |
| ATCTGGCA | -0.111 |
| ACGGCAAG | 0.187 |
| ACTTGGAA | -0.00131 |
| AATGCCAC | -0.0906 |
| GAATAGAC | -0.141 |
| GTTGATCA | -0.182 |
| CCAAAAGG | -0.262 |
| CCTCAATC | 0.119 |
| ACATAATA | -0.153 |
| GTGGGTGA | -0.0392 |
| ACTGATGA | -0.285 |
| GAAACCGA | 0.304 |
| AATCTAGG | -0.0333 |
| AGCGTGTA | -0.174 |
| ACAGTGTG | -0.241 |
| CATCGGAG | 0.204 |
| CTGATCAA | -0.123 |
| CCAGCAGA | -0.172 |
| CTGCAAGC | -0.0129 |
| CAGATCTG | -0.205 |
| AATTAAGT | 0.149 |
| AATTCAGA | -0.123 |
| CGACAAAC | 0.084 |
| ACTGGAGC | -0.143 |

| Sequence | PBM E-score |
| --- | --- |
| CGTCGTAC | -0.134 |
| GGCACGAA | -0.0259 |
| CAAAAGCG | -0.0484 |
| GGAATTCA | 0.138 |
| ACAAAACT | -0.101 |
| CACGGGGG | 0.0174 |
| TGACCTCA | -0.209 |
| CAATGCTG | -0.155 |
| GGAGTACA | 0.00514 |
| CTTGGCAA | -0.355 |
| GCCGTCAA | -0.0394 |
| CCTGATCC | 0.115 |
| CGAGCTTA | 0.172 |
| AAGCTTGT | -0.13 |
| CTTCTGCC | -0.0379 |
| GTTTGGCA | -0.0952 |
| AAGGTTTG | -0.107 |
| AGCGACAA | -0.15 |
| TATGGCAA | -0.0782 |
| CTGGAGCA | -0.262 |
| GACGGCTC | 0.155 |
| CCTATCTC | -0.0457 |
